In PubChem BioAssay AID1458 (National Center for Advancing Translational Sciences (NCATS), 2008):
About 5,900 (2.8%) of roughly 210,000 compounds were called active. Inconclusive results, whose numbers are uncertain, are shown with a selection of clear calls. Calls follow the shape of the dose curve; as a rule, active = well fitted activation curve with a large enough effect; inconclusive = small, poorly fitted or top-dose-only effect; inactive = no such curve, though single readings can be large or run the other way. Potencies beside an inconclusive call are fits to weak or partial responses and may not hold up.

Assay: qHTS Assay for Enhancers of SMN2 Splice Variant Expression; also: nearly all actives have a fitted effect of over 55% in size; as to activity change, positive = activation: % of control where 0% means no effect
Conditions: HEK293 SMN2-luciferase splicing reporter, luminescence, 30-36 h; activity change, positive = activation: at 46.1 µM (top of the series)
Procedure, shortened: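 qHTS luciferase splicing reporter: luminescence rises when SMN2 exon 7 is included in transfected HEK293 cells. Compound exposure lasted 30-36 h at 37C, with 4.5 mM final sodium butyrate as control, followed by a ONE-Glo read.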
Potency is read from the fitted curve at half-maximal effect; tags tell the direction and shape of the fitted curve.

Compound	Potency	activity change, positive = activation
CC(=O)c1ccc(N2C(=O)[C@@H]3C(C(=O)CCN4C(=O)c5ccccc5C4=O)=NN[C@@H]3C2=O)cc1	inconclusive: 0.0562 µM [activator, full curve]	
O=C(N/N=C/c1ccccc1)c1[nH]ncc1Br	inconclusive: 15.8 µM [activator, single point]	
CC(C)C(=O)NC(=S)Nc1sc2c(c1C(N)=O)CCCC2	inconclusive: 10 µM [activator, partial curve, poor fit]	
Nc1nc(SCC(=O)Nc2ccccc2)nc2nc3c(cc12)CCCC3	inconclusive: 17.8 µM [activator, single point]	
CCOc1ccc(C(=O)Nc2cccc(NC(=O)c3ccc(C(C)(C)C)cc3)c2)cc1Br	inconclusive: 11.2 µM [activator, partial curve]	
CCOc1ccc(NC(=O)c2ccccn2)cc1	active: 0.794 µM	
COC(=O)c1sc(=S)n(-c2ccccc2)c1N	inconclusive: 0.794 µM [activator, full curve]	
CCn1c(=O)cc(OCC(=O)NCCCN2CCC(C)CC2)c2ccccc21	inactive	
CNC(=O)c1[nH]cnc1C(=O)Nc1ccccc1OC	inconclusive: 0.631 µM [activator, partial curve]	
CN(C)/C=C1/C(=O)Nc2ccccc21	inconclusive: 25.1 µM [activator, partial curve, poor fit]	
CCCC1O[C@@H]2C[C@H]3[C@@H]4CCC5=CC(=O)C=C[C@]5(C)C4[C@@H](O)C[C@]3(C)[C@]2(C(=O)CO)O1 (some centres not stated)	inactive	
O=C(NC1CCCCCCC1)c1c(O)c2ccccc2[nH]c1=O	inconclusive: 22.4 µM [activator, partial curve, poor fit]	
COc1ccccc1OCc1nc(C#N)c(NCc2ccco2)o1	inconclusive: 5.62 µM [activator, partial curve, poor fit]	
N#Cc1c(C(F)(F)F)cc(-c2cccs2)nc1SCC(=O)Nc1ccccc1F	inactive	
C/C(=N\NC(=O)c1c(C)nc2ccccn12)c1ccco1	active: 10 µM	
COc1cccc(-c2nnc(SCC(=O)N3CCC(C)CC3)o2)c1	inactive	
CCn1c(=O)cc(SCC(=O)N2CCOCC2)c2ccccc21	active: 14.1 µM	
Fc1ccc(NCc2nnc(SCc3nnc(-c4ccccc4)o3)n2Cc2ccccc2)cc1	inactive	
Cc1ccc(OCC(=O)Nc2cccc(-c3nc4ccccc4o3)c2C)cc1C	inactive	
Cc1ccc(NC(=O)c2c(Cl)n(C)c3ccccc23)cc1	inconclusive: 17.8 µM [activator, single point]	
Cc1ccc(NC(=S)NCC2CCCO2)cc1C (configuration not stated)	inconclusive: 11.2 µM [activator, partial curve]	
O=C(c1cc(-c2ccccc2O)on1)N1CCCCC1	active: 20 µM	
CC(C)OC(=O)[C@@H]1CC[C@H](C)[C@@H](CCCC=O)O1	inactive	
COc1ccc(/C=C/C(=O)OCCCN(C)C)cc1	inconclusive: 3.98 µM [activator, single point]	

Compound	Potency	activity change, positive = activation
CCOC(=O)Cc1csc(NC(=O)c2sc3nc4c(C)cc(C)cc4cc3c2N)n1	active: 22.4 µM	
CC(=O)c1cccc(N=c2scc(-c3ccc(S(=O)(=O)N4CCOCC4)cc3)n2CCO)c1	inactive	
C/C(=N/NC(=O)c1ccoc1C)c1ccc(N2CCOCC2)cc1	inconclusive: 11.2 µM [activator, partial curve, poor fit]	
CC(=O)c1cccc(NC(=O)c2c(C)nn(-c3ccccc3)c2Cl)c1	inactive	
COCCNC(=O)c1c(N)sc2c1CCCC2	inconclusive: 4.47 µM [activator, full curve, poor fit]	
CCC(=O)Nc1cccc(SC)c1	inactive	
O=C(Nc1cccc([N+](=O)[O-])c1)c1ccc2c(c1)OCO2	inactive	
O=C1N/C(=C\c2ccccc2)C(O)=C1C=NCc1ccccc1	inconclusive: 11.2 µM [activator, partial curve]	
C/C(=N\Nc1nc2ccccc2[nH]1)c1ccc(N2CCOCC2)cc1	inconclusive: 2.82 µM [activator, full curve]	
c1ccc(-c2cn3c4c(sc3n2)CCCC4)cc1	inconclusive: 1.41 µM [activator, partial curve, poor fit]	
COc1ccc(F)cc1S(=O)(=O)N1CCC(C(N)=O)CC1	inconclusive: 3.55 µM [activator, partial curve]	
CC(C)(C)c1ccc(/C=C/C(=O)N2CCOCC2)cc1	active: 3.16 µM	
COc1ccc(C(=O)Nc2ccc3oc(-c4cc(Cl)ccc4Cl)nc3c2)cc1Br	inactive	
COC(=O)c1ccc(NC(=S)NC2CC3CCC2C3)cc1 (configuration not stated)	inconclusive: 12.6 µM [activator, partial curve, poor fit]	
Cc1ccc(C)c(Cn2c(=O)n(-c3ccc(F)cc3)c(=O)c3sc4ccccc4c32)c1	inconclusive: 5.62 µM [activator, single point]	
COC(=O)c1ccc(CSc2nc3ccccc3s2)o1	inconclusive: 35.5 µM [activator, single point]	
CN1CCN(c2ccc(NC(=O)c3ccc4c(c3)OCCO4)cc2)CC1	active: 11.2 µM	
COC(=O)N1C2CC(=O)O[C@@H]3c4cc5c(cc4[C@]1(C)[C@@]3(Br)c1ccccc12)OCO5		inactive: -29.7% [at 9.22 µM]
C=CCOc1c(Br)cc(/C=C2/NC(=S)N(C(C)=O)C2=O)cc1OC	inactive	
CC1CN(C(=O)c2cc3c(=O)n4ccccc4nc3s2)CC(C)O1 (configuration not stated)	inconclusive: 0.0032 µM [activator, full curve, poor fit]	
Cc1ccn2cc(C(=O)Nc3ccc4c(c3)OCCO4)nc2c1	inconclusive: 20 µM [activator, partial curve, poor fit]	
Cc1ccc(-c2nn3c(C)nnc3s2)cc1NCc1c(F)cccc1Cl	inconclusive: 5.62 µM [activator, partial curve]	
COc1cc2ccccc2cc1C(=O)NCC(c1cccs1)N(C)C (configuration not stated)		inconclusive: 30.2% [activator]
COC(=O)[C@H](Cc1ccccc1)NC(=O)O[C@@H]1C(=O)c2ccc(OC)cc2O[C@H]1c1cccc(C(F)(F)F)c1	inactive	

Compound	Potency	activity change, positive = activation
CCOC(=O)C1CCN(C(=O)CSc2cc(=O)n(CC)c3ccccc23)CC1	inconclusive: 14.1 µM [activator, partial curve]	
Cc1nnc2ccc(-c3cccc(NC(=O)c4ccco4)c3)nn12	inconclusive: 35.5 µM [activator, single point]	
COc1ccc(N(C(=O)c2cccc(C)c2)S(=O)(=O)c2ccc3c(c2)n(C)c(=O)n3C)cc1	inactive	
CCOC(=O)c1ccc(NC(=O)N2CCCCC2)cc1	inconclusive: 17.8 µM [activator, single point]	
O=C(NCc1cccnc1)C(=O)NCC(c1ccco1)N1CCN(c2ccccc2F)CC1 (configuration not stated)	inconclusive: 0.0089 µM [activator, full curve, poor fit]	
CCCC(=O)n1nc(-c2ccc(Cl)cc2)nc1SC	inconclusive: 7.08 µM [activator, partial curve, poor fit]	
COc1cccc2cc(C(=O)c3ccccc3)oc12	inconclusive: 12.6 µM [activator, single point]	
Cc1cccc(C(=O)N2CCCN(C(=O)c3cccc(C)c3)CC2)c1	inactive	
Cn1c(=O)cc(OCCCC(=O)Nc2cccnc2)c2ccccc21	inconclusive: 35.5 µM [activator, single point]	
O=C(Cc1ccccc1)NCC(=O)Nc1cccc(Br)c1	inconclusive: 0.126 µM [activator, full curve, poor fit]	
O=C(NCC1CCCO1)c1ccc2c(=O)n(Cc3cccc(Br)c3)c(=S)[nH]c2c1 (configuration not stated)	inactive	
CCOC(=O)c1cc(=O)n2[nH]c(-c3ccc(C)cc3)cc2n1	inconclusive: 1.41 µM [activator, full curve]	
Cc1cc2nccc(-c3ccncc3)n2n1	inactive	
CC1CCC(NC(=O)c2ccc(CNc3c(NC4CCCCC4)c(=O)c3=O)cc2)CC1 (configuration not stated)	inconclusive: 10 µM [activator, partial curve, poor fit]	
CCc1cc2c(=O)[nH]c(N3CCCC3)nc2s1	inconclusive: 35.5 µM [activator, single point]	
CCOC(=O)c1c(C)n(C)c2ccc(OCC(N)=O)cc12	inconclusive: 35.5 µM [activator, single point]	
CC1CN(C2CCN(C(=O)COc3ccccc3)CC2)CC(C)O1 (configuration not stated)	inconclusive: 35.5 µM [activator, single point]	
CNC(CC(=O)O)C(=O)O (configuration not stated)	inactive	
O=C(Cn1cnc2cc(Cl)ccc2c1=O)Nc1ccc2c(c1)OCO2	inconclusive: 1.41 µM [activator, partial curve]	
Cc1ccc(C(=O)Nc2cccc([N+](=O)[O-])c2)cc1S(=O)(=O)Nc1ccc(NC(=O)c2ccccc2)cc1	inconclusive: 15.8 µM [activator, single point]	
COc1cc(/C=C(\C#N)c2nc3ccccc3s2)cc([N+](=O)[O-])c1O	inactive	
C[C@@H]1[C@H](C)CC[C@@]2(C(=O)O)CC[C@]3(C)C(=CC[C@H]4[C@@]5(C)CC[C@@H](O)C(C)(C)[C@@H]5CC[C@@]43C)[C@@H]12	inactive	
CC(C)C(OC(=O)c1cccs1)C(=O)NCc1ccco1 (configuration not stated)	inactive	
N#CC1=C(N)N(c2ccc(Br)cc2)C2=C(C(=O)CCC2)C1c1cccnc1 (configuration not stated)	inconclusive: 11.2 µM [activator, partial curve, poor fit]	
